# Experimental data published in article PMC4336329 (PLoS ONE, 2015).
# The whole screen tested about 310,000 compounds, of which about 2,200 (0.71%) showed an effect of 50% or more. Effects have a minus sign here. Some of the results follow.
# Target: human ether-à-go-go-related gene (hERG) potassium channel (human, UniProt Q12809)
# Experiment: primary screen, population patch clamp on CHO cells stably expressing hERG
# Chain of human ether-à-go-go-related gene (hERG) potassium channel (Q12809 whole entry, looked up): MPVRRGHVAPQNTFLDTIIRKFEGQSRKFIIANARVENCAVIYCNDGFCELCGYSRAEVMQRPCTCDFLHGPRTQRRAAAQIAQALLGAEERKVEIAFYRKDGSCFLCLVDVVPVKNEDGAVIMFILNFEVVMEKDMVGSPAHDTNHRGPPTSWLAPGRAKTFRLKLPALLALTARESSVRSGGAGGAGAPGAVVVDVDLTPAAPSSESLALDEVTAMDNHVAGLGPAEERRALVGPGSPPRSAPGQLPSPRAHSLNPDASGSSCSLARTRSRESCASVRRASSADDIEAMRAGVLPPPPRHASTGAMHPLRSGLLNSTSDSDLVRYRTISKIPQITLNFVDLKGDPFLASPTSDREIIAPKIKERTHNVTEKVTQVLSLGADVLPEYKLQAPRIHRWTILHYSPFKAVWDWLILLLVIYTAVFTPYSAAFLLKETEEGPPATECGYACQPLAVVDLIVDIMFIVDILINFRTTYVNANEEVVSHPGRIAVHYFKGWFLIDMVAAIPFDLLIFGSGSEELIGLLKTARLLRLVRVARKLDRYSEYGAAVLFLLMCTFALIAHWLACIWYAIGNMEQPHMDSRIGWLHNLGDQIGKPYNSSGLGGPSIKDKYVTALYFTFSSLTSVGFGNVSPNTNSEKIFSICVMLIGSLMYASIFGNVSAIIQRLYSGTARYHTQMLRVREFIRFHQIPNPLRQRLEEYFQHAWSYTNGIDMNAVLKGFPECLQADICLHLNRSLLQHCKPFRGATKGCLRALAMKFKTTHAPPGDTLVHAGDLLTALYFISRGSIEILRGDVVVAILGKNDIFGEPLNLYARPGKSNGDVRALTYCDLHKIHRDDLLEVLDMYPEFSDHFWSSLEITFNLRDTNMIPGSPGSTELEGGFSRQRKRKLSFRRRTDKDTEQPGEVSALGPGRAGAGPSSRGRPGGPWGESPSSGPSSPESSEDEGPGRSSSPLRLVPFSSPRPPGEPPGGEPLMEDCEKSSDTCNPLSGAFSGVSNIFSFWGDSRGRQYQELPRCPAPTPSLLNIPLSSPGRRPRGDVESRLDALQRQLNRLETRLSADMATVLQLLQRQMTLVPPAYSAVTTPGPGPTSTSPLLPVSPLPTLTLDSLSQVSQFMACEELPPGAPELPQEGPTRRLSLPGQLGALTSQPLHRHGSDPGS
row,Structure (SMILES),"hERG current change (%, negative = inhibition) at 1uM"
1,COc1cccc(N(CC(=O)Nc2cccc(C(C)=O)c2)S(C)(=O)=O)c1,11.2%
2,CC1CCN(S(=O)(=O)c2cccc(C(=O)Nc3ccccn3)c2)CC1,-7.63%
3,CCOc1ccc2[nH]c(=O)c(CN(Cc3cccnc3)C(=O)Nc3ccccc3OC)cc2c1,10.1%
4,O=C(c1ccc2oc(CCCc3ccccc3)nc2c1)N1CCCC(CCCO)C1 (centres unmarked),7.06%
5,O=C(C1CCN(S(=O)(=O)c2ccc(Br)s2)CC1)N1CCN(c2ccccc2)CC1,12.8%
6,COc1ccc(-n2c(CCc3ccccc3)nnc2SCC(=O)NCc2ccccc2)cc1,1.21%
7,COc1cc(/C=N/N2CCOCC2)ccc1OC(=O)c1ccco1,20.3%
8,CC(Nc1nc(N2CCOCC2)nc2ccccc12)c1ccccc1 (centres unmarked),-52.7%
9,Cc1ccc2c(CNCc3ccccc3)cc(=O)oc2c1,16.3%
10,CC(=O)c1c(C)nc2ccc(C)cc2c1-c1ccccc1,3.33%
11,CCCCCC(=O)N1CCCCC1,-2.84%
12,COc1ccc(NC(=O)C2CCCN(S(C)(=O)=O)C2)c(OC)c1 (centres unmarked),15.2%
13,COc1ccccc1OCCNC(=O)c1ccc(C)c(S(=O)(=O)N2CCOCC2)c1,-0.793%
14,CCN(CC)CCCN1C(=O)C(O)=C(C(=O)c2sc(C)nc2C)C1c1ccco1 (centres unmarked),2.41%
15,NC(=O)NCC(c1ccccc1)C1CCCCC1 (centres unmarked),20.3%
16,COc1cccc(NC(=O)c2ccc3nsnc3c2)c1,10.3%
17,O=S(=O)(c1ccc(F)c(F)c1)N1CCN(S(=O)(=O)c2cccs2)CC1,11.9%
18,COc1ccc(C(=O)N2CCN(Cc3ccc(OC)c(OC)c3)CC2)cc1.O=C(O)C(=O)O,9.64%
19,O=C(c1ccccc1NS(=O)(=O)c1cccs1)N1CCOCC1,1.4%
20,O=[N+]([O-])c1ccc(N2CCCCCC2)c(S(=O)(=O)N2CCCCC2)c1,6.38%
21,CSCC[C@H](NC(=O)Cc1c(C)c2cc3c4c(oc3cc2oc1=O)CCCC4)C(=O)O,14.3%
22,O=C(Cn1c(=O)c2cccn2c2cccnc21)N1CCN(c2ccccc2F)CC1,16%

row,Structure (SMILES),"hERG current change (%, negative = inhibition) at 1uM"
1,CN(C)c1ccnc(Oc2ccc(Cl)cc2)c1C#N,-0.389%
2,COc1ccc(COC(=O)C2=C(C)NC(=O)NC2c2ccc(OC)cc2)cc1 (centres unmarked),13.4%
3,Cc1cc(C)c(NC(=O)CNC(=O)COC(=O)CNC(=O)c2ccc(Cl)cc2Cl)c(C)c1,10.1%
4,O=C(/C=C\Nc1ccccn1)c1ccc(Cl)cc1,5.43%
5,O=C(N=C1SC2CS(=O)(=O)CC2N1c1ccc(F)cc1)C1CCCCC1 (centres unmarked),9.03%
6,COc1ccccc1C(=O)N(CN1CCCC1=O)c1cccc(Cl)c1,2.43%
7,Cc1ccc(S(=O)(=O)N2CCC3(CC2)OCCO3)cc1,19.6%
8,O=C(O)c1cccc(NC(=S)NCc2ccccc2)c1,9.95%
9,COc1ccc(/C=N\NC(=O)C2=NNC(=O)C2C)cc1 (centres unmarked),6.23%
10,Cc1ccc(S(=O)(=O)NC2(C(=O)O)CCCCC2)cc1,1.62%
11,C/C(N)=C(/C#N)C(=O)CSc1nnc(-c2ccccc2)n1C,14.5%
12,COc1ccc(/C=C2\CCC(C3CCCC3)C2=O)cc1OC (centres unmarked),13.5%
13,CC(NC(=O)c1ccccc1Cl)NC(=O)c1ccccc1Cl,7.65%
14,O=C(CSc1nnc(Nc2ccccc2)s1)NCc1cccs1,20.7%
15,CCOC(=O)NN1C(=O)c2ccccc2NC1(C)C,4.73%
16,O=C(N/N=C/c1ccc(Cl)s1)c1ccccc1[N+](=O)[O-],14.1%
17,O=C(COC(=O)c1cc(-c2ccc(Cl)s2)nc2ccccc12)NCc1ccco1,5.02%
18,Cc1ccc2oc(=O)c3cc(C(=O)NCCCN4C(C)CCCC4C)sc3c2c1 (centres unmarked),-12.8%
19,CCc1ccc(NC(=O)Cn2c3[n+](c4c(F)c(F)ccc42)CCCCC3)cc1.[I-],17%
20,CC(=O)Nc1ccc(NC(=O)CN2C(=O)COc3ccc(S(=O)(=O)N4CCCCC4)cc32)cc1,9.47%
21,CC(C)Cn1c2c(c(O)c(C(=O)Nc3nc4ccccc4s3)c1=O)CCCC2,14%
22,Cc1ccc(-c2nnc(NCCCO)c3ccccc23)cc1,-1.07%
